Data taken from paper PMC4336329 (PLoS ONE, 2015).
Among all 310,000 compounds or so, about 2,200 (0.71%) showed an effect of 50% or more. Effects have a minus sign here. This is one part of the list.

Target: human ether-à-go-go-related gene (hERG) potassium channel (human, UniProt Q12809)
Assay: primary screen, population patch clamp on CHO cells stably expressing hERG

Sequence of human ether-à-go-go-related gene (hERG) potassium channel (Q12809 whole entry, looked up): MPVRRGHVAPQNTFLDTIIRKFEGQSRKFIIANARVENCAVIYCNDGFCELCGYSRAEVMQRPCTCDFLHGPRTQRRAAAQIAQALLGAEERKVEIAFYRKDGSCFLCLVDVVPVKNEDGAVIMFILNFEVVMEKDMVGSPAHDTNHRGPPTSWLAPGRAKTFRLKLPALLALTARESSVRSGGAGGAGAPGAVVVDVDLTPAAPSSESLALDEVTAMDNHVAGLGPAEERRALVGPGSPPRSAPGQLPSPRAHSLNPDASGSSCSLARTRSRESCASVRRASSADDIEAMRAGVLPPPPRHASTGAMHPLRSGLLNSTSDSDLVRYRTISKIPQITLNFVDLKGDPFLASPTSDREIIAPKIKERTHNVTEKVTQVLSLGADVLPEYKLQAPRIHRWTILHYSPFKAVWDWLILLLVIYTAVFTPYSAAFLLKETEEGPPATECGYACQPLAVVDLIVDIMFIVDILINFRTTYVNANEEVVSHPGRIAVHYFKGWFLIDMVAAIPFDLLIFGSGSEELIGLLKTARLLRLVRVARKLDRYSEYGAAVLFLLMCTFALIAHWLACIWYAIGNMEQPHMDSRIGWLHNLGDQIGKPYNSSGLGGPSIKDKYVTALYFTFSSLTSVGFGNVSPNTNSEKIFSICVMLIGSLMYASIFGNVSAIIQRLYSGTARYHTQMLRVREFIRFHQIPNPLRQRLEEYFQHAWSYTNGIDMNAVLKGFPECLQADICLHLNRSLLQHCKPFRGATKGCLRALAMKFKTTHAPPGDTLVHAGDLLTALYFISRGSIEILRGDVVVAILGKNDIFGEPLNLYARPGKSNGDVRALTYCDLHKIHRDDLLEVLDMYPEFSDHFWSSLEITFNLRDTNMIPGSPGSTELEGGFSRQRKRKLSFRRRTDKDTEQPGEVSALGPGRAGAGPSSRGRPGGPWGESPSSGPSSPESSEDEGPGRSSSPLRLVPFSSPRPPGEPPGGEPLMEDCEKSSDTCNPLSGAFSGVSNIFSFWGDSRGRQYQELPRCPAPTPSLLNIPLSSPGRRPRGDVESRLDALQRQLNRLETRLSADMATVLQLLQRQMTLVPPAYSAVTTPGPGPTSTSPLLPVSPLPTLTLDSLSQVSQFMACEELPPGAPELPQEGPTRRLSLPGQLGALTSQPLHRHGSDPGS

Point of comparison: `N#CCCN(Cc1cccs1)C(=O)Nc1ccc(F)cc1`, “hERG current change (%, negative = inhibition) at 1uM” value 5.92%. Against it:
- O=C(C1CCN(S(=O)(=O)c2cc(Cl)ccc2Cl)CC1)N1CCOCC1 — higher, 10.7%
- O=C(Cn1cc([N+](=O)[O-])ccc1=O)NCc1ccc(Cl)cc1Cl — lower, 1.3%
- CCOc1ccc(C(=O)NCc2ccccn2)cc1 — higher, 15.5%
- COc1ccc(-c2cc(C(=O)O)no2)cc1 — higher, 18.6%
- CC(=O)Nc1cccc(/C(C)=N/NC(=O)c2ccccc2Cl)c1 — higher, 13.5%
- COc1ccc(S(=O)(=O)/C(C#N)=C/Nc2ccc(NC(C)=O)cc2)cc1 — higher, 14.7%
- C=CCNC(=S)N1CCN(CCN=CC2=C(O)CC(c3ccco3)CC2=O)CC1 (centres unmarked) — lower, -4.9%
- O=C(Cn1nnc2ccccc21)Nc1ccc(Cl)cn1 — higher, 7.08%
- O=C(CCl)NC(=O)NC12CC3CC(CC(C3)C1)C2 — higher, 9.11%
- COCCCNC(=O)/C(C#N)=C/c1c(N2CCN(c3cccc(Cl)c3)CC2)nc2c(C)cccn2c1=O — higher, 8.9%
- O=C1c2ccccc2C(=O)c2c1cccc2-n1nnc2ccccc21 — higher, 8.53%
- Cc1ccc(-c2cccc(CN3CCN(C(C)C)C(CCO)C3)c2)o1 (centres unmarked) — higher, 16.8%
- COc1ccc2c(c1)CCc1c(C(=O)NCc3ccc(Cl)cc3)noc1-2 — higher, 15.2%
- Cc1ccccc1NC(=O)CCCCC(=O)Nc1ccccc1C — higher, 12.7%
- CCC(=O)OC1(C)C(=O)C=C2C=C(c3ccsc3)OC=C2C1=O (centres unmarked) — higher, 9.93%
- Cc1cc(CN2CCN(CC(=O)Nc3cc(C(F)(F)F)ccc3-n3cncn3)CC2)no1 — lower, -36.4%
- C=C(C)CSc1nc2ncccc2[nH]1 — lower, 5.54%
- COc1cc(C=C(C(C)=O)C(C)=O)ccc1O — higher, 18.1%
- COC(=O)c1cc2occc2n1Cc1nc(-c2ccc(Cl)cc2)oc1C — higher, 11.2%
- COc1ccc(-c2cc(C(=O)Nc3sc4c(c3C#N)CCCC4)c3ccccc3n2)cc1 — lower, 2.84%
- CCOc1ccccc1NC(=O)CNC(=O)CNC(=O)Cc1ccccc1 — higher, 13.2%
- COCCNC(=O)c1cc2nc3c(c(C(F)(F)F)n2n1)CCc1ccccc1-3 — higher, 18.6%
- COc1ccc(-n2c(O)c(C(C)=NCCN3CCNCC3)c(=O)[nH]c2=O)cc1 — higher, 7.61%
- Cc1ccc(Oc2ccccc2/C=C2\SC(=O)N(C)C2=O)cc1 — higher, 11.1%
- Cc1c(C(=O)N2CCOCC2)c(S(=O)(=O)Nc2ccccc2F)c(C)n1C — lower, 5.33%
- CN(CC(=O)Nc1ccc(Cl)c(S(=O)(=O)N(C)C)c1)Cc1ccccc1 — higher, 7.43%
- COc1cc(C(C)=O)ccc1OCC(O)Cn1nc(C)c(Br)c1C (centres unmarked) — higher, 9.12%
- O=C1Cc2cc(NS(=O)(=O)c3cc(F)ccc3F)cc3c2N1CCC3 — higher, 9.19%
- CN1C(=S)SC(/[N+]([O-])=C/c2c(F)cccc2Cl)C1(C)C (centres unmarked) — higher, 16.2%
- CC1(C)CC(=O)C2=C(C1)Nc1ccccc1NC2c1nc2ccccc2[nH]1 (centres unmarked) — higher, 10.2%
- CCC(NC(=O)Nc1ccc(O)cc1)(C(F)(F)F)C(F)(F)F — higher, 15.2%
- Cc1ccc(C(=O)O/N=C2/CC3CCC2(C)[C@@]3(C)CBr)cc1 (some centres unmarked) — higher, 13.3%
- O=C1c2ccccc2C(=O)N1CCOCCN1C(=O)c2ccccc2C1=O — lower, 5.55%
- Cc1ccc(NC(=S)Nc2cc(C(=O)O)ccc2N2CC3CC(C2)c2cccc(=O)n2C3)cc1C (centres unmarked) — lower, 4.92%
- COc1ccc(NC(=O)CNC(=O)Cn2cnc3sc4c(c3c2=O)CCCC4)cc1OC — higher, 18.9%
- CCC(=O)Nc1sc2c(c1C(=O)OC)CCN(Cc1ccccc1)C2.Cl — lower, -24.3%
- CC(c1ccco1)N(C(=O)c1cccc(S(=O)(=O)N(C)C)c1)c1ccccn1 (centres unmarked) — higher, 17.8%
- CN1CCN(S(=O)(=O)c2ccc(NC(=O)Cc3ccc([N+](=O)[O-])cc3)cc2)CC1 — higher, 15.4%
- O=C(CN1c2ccccc2Sc2ccccc21)N/N=C/c1ccc([N+](=O)[O-])cc1 — higher, 12.5%
- Cc1ccccc1NC(=S)N(CCCN1CCCCC1)Cc1ccco1 — lower, -2.67%
- COc1ccc(CNS(=O)(=O)c2ccc3oc(C(=O)O)c(C)c3c2)cc1 — lower, 5.85%
- CCCc1c(O)nc(SCc2ccccc2)[nH]c1=O — lower, 2.62%
- CCCCCn1c(SCC(=O)CC(=O)OCC)nc2cc(C(=O)N3CCC(C(N)=O)CC3)ccc2c1=O — higher, 10.6%
